Reference: the supplement of paper PMC12217912
The list shows a part of the results. The full chains were built here from the parent and the listed change. Values near 0.05 are background.

B1: TEV protease; numbered along this chain (parent)
chain: MGESLFKGPRDYNPISSSICHLTNESDGHTTSLYGIGFGPFIITNKHLFRRNNGTLVVQSLHGVFKVKDTTTLQQHLVDGRDMIIIRMPKDFPPFPQKLKFREPQREERICLVTTNFQTKSMSSMVSDTSCTFPSGDGIFWKHWIQTKDGQCGSPLVSTRDGFIVGIHSASNFTNTNNYFTSVPKNFMELLTNQEAQQWVSGWRLNADSVLWGGHKVFMVKPEEPFQPVKEATQL

Variants of: B1
Assay: raw area under fraction-flipped curve 0-4 h after induction (AUC4h, not background-subtracted), DNA-recorder readout of cleavage of the substrate (dimensionless); higher = more cleavage of the substrate by the protease variant
Details: temperature: 34 °C; time window: 0-4 h after rhamnose induction
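Note: Bxb1 expression induced with 0.2% (w/v) L-rhamnose at OD600 near 0.5, cultures sampled hourly, flipped fraction per protease–substrate barcode pair counted by paired-end Illumina sequencing.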

Variant	area with substrate EALYFQS	area with substrate ECLYFQS	area with substrate EDLYFQS	area with substrate EELYFQS	area with substrate EFLYFQS	area with substrate EHLYFQS	area with substrate EILYFQS	area with substrate EKLYFQS	area with substrate EMLYFQS	area with substrate EPLYFQS	area with substrate EQLYFQS	area with substrate ESLYFQS	area with substrate ETLYFQS	area with substrate EVLYFQS	area with substrate ERLYFQS	area with substrate EWLYFQS	area with substrate EYLYFQS	area with substrate EGLYFQS	area with substrate ELLYFQS
MGESLFKGPRDYNPISSSICHLTNESDGHTTSLYGIGFGPFIITNKHLFRRNNGTLVVQSLHGVFKVKDTTTLQQHLVDGRDMIIIRMPKDFPPFPQKLKFREPQREERICLVTTNFQTKSMSSMVSDTSCTFPSGDGIFWKHWIQTKDGQCGSPLVSTRDGFIVGIHSASNFTNTNNYFTSVPKNFMELLTNQEAQQWVSQWRLNADSVLWGGHKVFMVKPEEPFQPVKEATQL [G202Q]	0.0716	0.0763	0.0854	0.0711	0.112	0.0699	0.0517	0.0717	0.0626	0.0669	0.0612	0.0743	0.0897	0.0763					
MGESLFKGPRDYNPISSSICHLTNESDGHTTSLYGIGFGPFIITNKHLFRRNNGTLVVQSLHGVFKVKDTTTLQQHLVDGRDMIIIRMPKDFPPFPQKLKFREPQREERICLVTTNFQTKSMSSMVSDTSCTFPSGDGIFWKHWIQTKDGQCGSPLVSTRDGFIVGIHSASNFTNTNNYFTSVPKNFMELLTNQEAQQWVSGGRLNADSVLWGGHKVFMVKPEEPFQPVKEATQL [W203G]	0.0653	0.0548	0.0696		0.0495	0.0662	0.0528	0.0636	0.0612		0.0607	0.0617		0.0591	0.0725	0.0752	0.0839		
MGESLFKGPRDYNPISSSICHLTNESDGHTTSLYGIGFGPFIITNKHLFRRNNGTLVVQSLHGVFKVKDTTTLQQHLVDGRDMIIIRMPKDFPPFPQKLKFREPQREERICLVTTNFQTKSMSSMVSDTSCTFPSGDGIFWKHWIQTKDGQCGSPLVSTRDGFIVGIHSASNFTNTNNYFTSVPKNFMELLTNQEAQQWVSGNRLNADSVLWGGHKVFMVKPEEPFQPVKEATQL [W203N]	0.0667	0.0518	0.0744	0.0612		0.06	0.054		0.0638	0.0439	0.0604	0.0527	0.0556	0.0477	0.0596	0.0705			
MGESLFKGPRDYNPISSSICHLTNESDGHTTSLYGIGFGPFIITNKHLFRRNNGTLVVQSLHGVFKVKDTTTLQQHLVDGRDMIIIRMPKDFPPFPQKLKFREPQREERICLVTTNFQTKSMSSMVSDTSCTFPSGDGIFWKHWIQTKDGQCGSPLVSTRDGFIVGIHSASNFTNTNNYFTSVPKNFMELLTNQEAQQWVSGWFLNADSVLWGGHKVFMVKPEEPFQPVKEATQL [R204F]	0.13	0.0973	0.169	0.125	0.138		0.133	0.122	0.125	0.147	0.133	0.111	0.0974	0.0948	0.103	0.108		0.0729	0.0791
MGESLFKGPRDYNPISSSICHLTNESDGHTTSLYGIGFGPFIITNKHLFRRNNGTLVVQSLHGVFKVKDTTTLQQHLVDGRDMIIIRMPKDFPPFPQKLKFREPQREERICLVTTNFQTKSMSSMVSDTSCTFPSGDGIFWKHWIQTKDGQCGSPLVSTRDGFIVGIHSASNFTNTNNYFTSVPKNFMELLTNQEAQQWVSGWLLNADSVLWGGHKVFMVKPEEPFQPVKEATQL [R204L]	0.117	0.105	0.13	0.0738		0.128	0.0842	0.11	0.145	0.104	0.117	0.0981		0.0813	0.0926	0.0877	0.112	0.0971	
MGESLFKGPRDYNPISSSICHLTNESDGHTTSLYGIGFGPFIITNKHLFRRNNGTLVVQSLHGVFKVKDTTTLQQHLVDGRDMIIIRMPKDFPPFPQKLKFREPQREERICLVTTNFQTKSMSSMVSDTSCTFPSGDGIFWKHWIQTKDGQCGSPLVSTRDGFIVGIHSASNFTNTNNYFTSVPKNFMELLTNQEAQQWVSGWRGNADSVLWGGHKVFMVKPEEPFQPVKEATQL [L205G]	0.0718	0.0645	0.0881	0.0395		0.0821		0.0773	0.0563			0.0693	0.0617	0.0523	0.0668		0.0598	0.0735	
MGESLFKGPRDYNPISSSICHLTNESDGHTTSLYGIGFGPFIITNKHLFRRNNGTLVVQSLHGVFKVKDTTTLQQHLVDGRDMIIIRMPKDFPPFPQKLKFREPQREERICLVTTNFQTKSMSSMVSDTSCTFPSGDGIFWKHWIQTKDGQCGSPLVSTRDGFIVGIHSASNFTNTNNYFTSVPKNFMELLTNQEAQQWVSGWRMNADSVLWGGHKVFMVKPEEPFQPVKEATQL [L205M]	0.128	0.112	0.184	0.146		0.128	0.0999		0.134		0.118	0.13	0.102	0.102	0.106	0.109	0.12	0.139	0.125
MGESLFKGPRDYNPISSSICHLTNESDGHTTSLYGIGFGPFIITNKHLFRRNNGTLVVQSLHGVFKVKDTTTLQQHLVDGRDMIIIRMPKDFPPFPQKLKFREPQREERICLVTTNFQTKSMSSMVSDTSCTFPSGDGIFWKHWIQTKDGQCGSPLVSTRDGFIVGIHSASNFTNTNNYFTSVPKNFMELLTNQEAQQWVSGWRLNADVVLWGGHKVFMVKPEEPFQPVKEATQL [S209V]	0.0988	0.103	0.147			0.0922	0.122		0.0989	0.139	0.127	0.1	0.111	0.122			0.0933	0.0983	
MGESLFKGPRDYNPISSSICHLTNESDGHTTSLYGIGFGPFIITNKHLFRRNNGTLVVQSLHGVFKVKDTTTLQQHLVDGRDMIIIRMPKDFPPFPQKLKFREPQREERICLVTTNFQTKSMSSMVSDTSCTFPSGDGIFWKHWIQTKDGQCGSPLVSTRDGFIVGIHSASNFTNTNNYFTSVPKNFMELLTNQEAQQWVSGWRLNADSVQWGGHKVFMVKPEEPFQPVKEATQL [L211Q]	0.117	0.138	0.122	0.122		0.113	0.0897	0.101			0.138	0.104		0.0956		0.0924	0.0984	0.0972	
